Test results taken from the supplement of paper PMC4967469.

How the values were obtained:
Assay in all cases: Viability of human cancer cell lines after 72 h of drug (GDSC screen)
Olaparib = compound: O=C(c1cc(Cc2n[nH]c(=O)c3ccccc23)ccc1F)N1CCN(C(=O)C2CC2)CC1 [Olaparib]
Protocol: (§1)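 Human cancer cell lines in 384-well plates, medium with 10% serum, drug for 72 h over a 256-fold dose range (nine 2-fold or five 4-fold steps up to the top dose). Adherent lines were fixed and stained with the nucleic acid dye Syto60, suspension lines read with resazurin; signal relative to control wells, capped at 0 and 100%. One two-parameter sigmoid per drug and line, fitted in a mixed model over all curves with the slope shared within a line.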

SB-525334 = compound: Cc1cccc(-c2[nH]c(C(C)(C)C)nc2-c2ccc3nccnc3c2)n1 [SB-525334]; conditions: top dose 20 µM; top dose inferred
Protocol: as §1

Shikonin = compound: CC(C)=CC[C@@H](O)C1=CC(=O)c2c(O)ccc(O)c2C1=O [Shikonin]; conditions: top dose 16 µM; top dose inferred
Protocol: as §1

VX-702 = compound: NC(=O)c1ccc(N(C(N)=O)c2c(F)cccc2F)nc1-c1ccc(F)cc1F [VX-702]; conditions: top dose 2 µM; top dose inferred
Protocol: as §1

BMS-536924 = compound: Cc1cc(N2CCOCC2)cc2[nH]c(-c3c(NC[C@@H](O)c4cccc(Cl)c4)cc[nH]c3=O)nc12 [BMS-536924]; conditions: top dose 4 µM; screen: GDSC drug entry 1091; top dose inferred
Protocol: as §1

BIRB 0796 = compound: Cc1ccc(-n2nc(C(C)(C)C)cc2NC(=O)Nc2ccc(OCCN3CCOCC3)c3ccccc23)cc1 [BIRB 0796]; conditions: top dose 10 µM; top dose inferred
Protocol: as §1

[1] = top dose 5 µM, screen: GDSC drug entry 1017, top dose inferred
[2] = top dose 10 µM, screen: GDSC drug entry 1495

Cell Line	AUC (Olaparib; [1])	IC50 (Olaparib; [1]) [µM]	AUC (Olaparib; [2])	IC50 (Olaparib; [2]) [µM]	AUC (SB-525334)	IC50 (SB-525334) [µM]	AUC (Shikonin)	IC50 (Shikonin) [µM]	AUC (VX-702)	IC50 (VX-702) [µM]	AUC (BMS-536924)	IC50 (BMS-536924) [µM]	AUC (BIRB 0796)	IC50 (BIRB 0796) [µM]
ACHN (kidney, adherent)	0.96	> 5	0.941	> 10	0.941	> 20	0.313	0.276	0.976	> 2	0.904	> 4		
AN3-CA (endometrium, adherent)	0.948	> 5	0.889	> 10	0.95	> 20	0.295	0.25	0.984	> 2	0.856	3.7		
BICR22 (head and neck, adherent)	0.922	> 5	0.933	> 10	0.983	> 20	0.661	3.01	0.951	> 2	0.941	> 4	0.9	> 10
CAKI-1 (kidney, adherent)	0.889	> 5	0.922	> 10	0.935	> 20	0.445	0.657	0.948	> 2	0.92	> 4		
Daoy (medulloblastoma, adherent)	0.985	> 5	0.777	3.63	0.983	> 20	0.204	0.149	0.988	> 2	0.986	> 4		
EFM-19 (breast, adherent)	0.952	> 5	0.914	> 10	0.793	15.1	0.349	0.307	0.966	> 2	0.856	> 4		
HCC70 (breast, adherent)					0.904	> 20	0.603	1.91	0.979	> 2	0.959	> 4		
HMV-II (melanoma, adherent)	0.974	> 5	0.963	> 10	0.853	> 20	0.168	0.0737	0.974	> 2	0.889	> 4		
HOP-92 (large cell lung carcinoma, adherent)	0.983	> 5	0.942	> 10	0.979	> 20	0.534	1.25	0.981	> 2	0.926	> 4		
JHH-6 (liver, adherent)	0.982	> 5	0.894	> 10	0.962	> 20	0.658	2.77	0.985	> 2	0.964	> 4		
JHOS-4 (ovary, adherent)	0.979	> 5	0.893	> 10					0.98	> 2			0.909	> 10
JHU-011 (head and neck, adherent)	0.944	> 5			0.986	> 20	0.357	0.405	0.947	> 2	0.979	> 4	0.954	> 10
KNS-62 (lung squamous cell carcinoma, adherent)	0.953	> 5	0.867	> 10					0.975	> 2	0.972	> 4	0.915	> 10
KYSE-70 (oesophagus, adherent)	0.96	> 5	0.971	> 10	0.983	> 20	0.559	1.47	0.985	> 2				
KYSE-270 (oesophagus, adherent)			0.804	4.16	0.979	> 20	0.251	0.221			0.896	3.64		
LU-99A (large cell lung carcinoma, adherent)			0.835	6.49	0.97	> 20	0.589	1.75			0.868	3.57		
M14 (melanoma, adherent)	0.987	> 5	0.922	> 10	0.849	16.3	0.479	0.875	0.987	> 2	0.869	> 4		
MDA-MB-436 (breast, adherent)					0.902	> 20	0.571	1.64	0.984	> 2	0.963	> 4	0.923	> 10
MKN45 (stomach, adherent)	0.981	> 5	0.961	> 10	0.89	> 20	0.449	0.701	0.929	> 2	0.97	> 4		
ML-1 (thyroid, adherent)			0.952	> 10	0.981	> 20	0.277	0.206			0.907	> 4		
Mewo (melanoma, adherent)	0.978	> 5	0.945	> 10	0.94	> 20	0.502	1.01	0.977	> 2	0.959	> 4		
NCI-H1299 (large cell lung carcinoma, adherent)			0.949	> 10	0.953	> 20	0.507	1.05			0.954	> 4		
NCI-H1573 (lung adenocarcinoma, adherent)			0.988	> 10	0.937	> 20	0.957	> 16			0.904	> 4		
NCI-H1734 (lung adenocarcinoma, adherent)	0.935	> 5			0.9	> 20	0.64	2.54	0.984	> 2				
NCI-H1793 (lung adenocarcinoma, adherent)			0.971	> 10	0.977	> 20	0.863	> 16			0.889	> 4		

Cell Line	AUC (Olaparib; [1])	IC50 (Olaparib; [1]) [µM]	AUC (Olaparib; [2])	IC50 (Olaparib; [2]) [µM]	AUC (SB-525334)	IC50 (SB-525334) [µM]	AUC (Shikonin)	IC50 (Shikonin) [µM]	AUC (VX-702)	IC50 (VX-702) [µM]	AUC (BMS-536924)	IC50 (BMS-536924) [µM]	AUC (BIRB 0796)	IC50 (BIRB 0796) [µM]
NCI-H2029 (small cell lung carcinoma, adherent)	0.992	> 5	0.982	> 10	0.985	> 20	0.892	15.6	0.992	> 2	0.965	> 4		
NCI-H2170 (lung squamous cell carcinoma, adherent)			0.975	> 10	0.971	> 20	0.586	1.74			0.919	> 4		
OCUM-1 (stomach, adherent)	0.957	> 5	0.936	> 10	0.987	> 20	0.778	7.23	0.987	> 2			0.929	> 10
OSC-19 (head and neck, adherent)			0.917	> 10	0.952	> 20	0.346	0.366			0.939	> 4	0.983	> 10
PA-TU-8988T (pancreas, adherent)	0.986	> 5	0.922	> 10	0.979	> 20	0.527	1.19	0.982	> 2	0.884	> 4		
PANC-08-13 (pancreas, adherent)	0.965	> 5	0.931	> 10	0.912	> 20	0.686	3.88	0.973	> 2	0.846	> 4		
PCI-38 (head and neck, adherent)			0.969	> 10	0.921	> 20	0.78	6.63			0.839	2.75		
PL18 (pancreas, adherent)			0.906	> 10	0.988	> 20	0.516	1.1			0.976	> 4		
RCC-MF (kidney, adherent)	0.967	> 5	0.964	> 10	0.889	> 20			0.953	> 2	0.9	> 4	0.844	> 10
RD (rhabdomyosarcoma, adherent)			0.928	> 10	0.952	> 20	0.319	0.296			0.835	2.97		
RMG-I (ovary, adherent)	0.983	> 5	0.929	> 10	0.691	4.74	0.446	0.696	0.983	> 2	0.869	> 4		
RT-112 (bladder, adherent)			0.977	> 10	0.831	14	0.3	0.261			0.723	1.13		
SAT (head and neck, adherent)	0.83	> 5	0.884	> 10	0.953	> 20			0.901	> 2			0.965	> 10
SK-MEL-24 (melanoma, adherent)	0.98	> 5	0.929	> 10	0.849	> 20	0.559	1.51	0.978	> 2	0.911	> 4		
SN12C (kidney, adherent)			0.92	> 10	0.963	> 20	0.651	2.76			0.957	> 4		
SNU-398 (liver, adherent)			0.957	> 10	0.833	13.6	0.205	0.128			0.926	> 4		
SW156 (kidney, adherent)			0.977	> 10	0.961	> 20	0.618	2.2			0.979	> 4		
SW837 (large intestine, adherent)			0.959	> 10	0.934	> 20	0.716	5.06			0.908	> 4		
SW1088 (glioma, adherent)			0.957	> 10	0.973	> 20	0.453	0.716			0.885	> 4		
SW1463 (large intestine, adherent)			0.967	> 10	0.964	> 20	0.594	2.18			0.941	> 4		
SW1990 (pancreas, adherent)	0.977	> 5	0.916	> 10	0.978	> 20	0.514	1.1	0.984	> 2	0.954	> 4		
U251 (glioma, adherent)					0.721	5.11	0.504	1.03	0.986	> 2	0.982	> 4		
UM-UC-3 (bladder, adherent)	0.987	> 5	0.906	> 10	0.943	> 20	0.477	0.867	0.987	> 2	0.987	> 4		
UMC-11 (lung carcinoid, adherent)	0.991	> 5	0.957	> 10	0.975	> 20	0.801	6.87	0.976	> 2	0.99	> 4		
VMRC-RCW (kidney, adherent)	0.981	> 5			0.984	> 20	0.412	0.584	0.967	> 2				

Lines with a small IC50 respond at low doses; a fit beyond the top or the lowest dose is shown as a bound at that dose. The AUC spans the tested range (256-fold, ending at the top dose) of the same fit; values near 1 show little effect. Where the top dose is marked as inferred, it was derived from the fitted curves, not read from the paper. For part of these data: Drugs with an entry number were screened twice under separate entries, and the two screens often disagree.
